# Measurements reported in the RNAGym collection of RNA variant scans (doi:10.1101/gad.245936.114).
# This sample is rich in variants without activity.
# B1: tRNA (parent)
# chain: CUCUCGGUAGCCAAGUUGGUUUAAGGCGCAAGACUUUAAUUUAUCACUACGAAAUCUUGAGAUCGGGCGUUCGACUCGCCCCCGGGAGAUUUUUUCCUCGAGCAA
# Variants of: B1
# Experiment: nonsense suppression (GFP-seq) (ratio to wild type); higher = more function; SUP4oc tRNA, yeast GFP reporter sort-seq
# Summary of the method: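 Yeast carrying genome-integrated SUP4oc tRNA variants from a library with ~3% random mutations were grown in raffinose/galactose medium with 80 mg/L adenine. Each strain also carried a galactose-driven GFP ochre reporter and RFP. Cells were sorted into GFP/RFP bins, and each bin was Illumina-sequenced (phred ≥30). Nonsense suppression (GFPSEQ) is the bin median GFP/RFP, weighted by each variant's estimated cell share per bin, relative to wild-type SUP4oc; variants needed ≥100 reads and ≥30 cells.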
row,Variant,nonsense suppression
1,U8G U16A A62C C68U,≤ 0.026
2,U8G U16C,≤ 0.026
3,U8G U16G U35G C72A,≤ 0.026
4,U8G U17G G69U C80G,≤ 0.026
5,U8G U20A U70C A74C,≤ 0.026
6,U8G U20G U21A A33C U55C,≤ 0.026
7,U8G U21A C82U,≤ 0.026
8,U8G U21A C83A,≤ 0.026
9,U8G U21G A23C,≤ 0.026
10,U8G U22C A60C C72G,≤ 0.026
11,U8G U22C G88A,≤ 0.026
12,U8G U57A,≤ 0.026
13,U8G U58A G65C,≤ 0.026
14,U8G U58G U71A,≤ 0.026
15,U8G U71A G85A,≤ 0.026
16,U8G U71C,≤ 0.026
17,A9C A13C G78C,≤ 0.026
18,A9C A13U A60U,1.16
19,A9C A13U G69U A89U,≤ 0.026
20,A9C A13U U71C,≤ 0.026
21,A9C A14U G19U,≤ 0.026

row,Variant,nonsense suppression
1,A9C A23C A74G,≤ 0.026
2,A9C A23U G59U G78U C82G,≤ 0.026
3,A9C A24C U76G,≤ 0.026
4,A9C A24G C34G,≤ 0.026
5,A9C A24U C75G,≤ 0.026
6,A9C A30C G32A,≤ 0.026
7,A9C A30G C34A,≤ 0.026
8,A9C A30U,0.0886
9,A9C A31C U71A,≤ 0.026
10,A9C A31G,0.857
11,A9C A54C G65C G86A,≤ 0.026
12,A9C A60U,0.575
13,A9C A62U,≤ 0.026
14,A9C A74C,≤ 0.026
15,A9C A74U C77G G85C,≤ 0.026
16,A9C A87C,≤ 0.026
17,A9C A87G,0.649
18,A9C C11A C75A,≤ 0.026
19,A9C C11G A30G,≤ 0.026
20,A9C C11U G67A,≤ 0.026
21,A9C C11U U70G,≤ 0.026

row,Variant,nonsense suppression
1,A9C C12A A14U A31G G32A C68U,≤ 0.026
2,A9C C12G G18C G25C,≤ 0.026
3,A9C C12G U22G,≤ 0.026
4,A9C C12U A23C A87U,≤ 0.026
5,A9C C27U U55G C77U C79U,≤ 0.026
6,A9C C29A,≤ 0.026
7,A9C C29G U63C A89G,≤ 0.026
8,A9C C34A U57C,≤ 0.026
9,A9C C56A G65A G78C,≤ 0.026
10,A9C C56U,≤ 0.026
11,A9C C56U C79G C81A,≤ 0.026
12,A9C C68G,≤ 0.026
13,A9C C72G,≤ 0.026
14,A9C C75A,0.938
15,A9C C75A G88A,≤ 0.026
16,A9C C80G G88A,≤ 0.026
17,A9C C82U G84A,≤ 0.026
18,A9C C83A,≤ 0.026
19,A9C G10A U16C,≤ 0.026
20,A9C G10C C12U,≤ 0.026
21,A9C G15C G59A U70C,≤ 0.026

row,Variant,nonsense suppression
1,A9C G18A A74C,≤ 0.026
2,A9C G18A C64U,≤ 0.026
3,A9C G19A C29A,≤ 0.026
4,A9C G19A C82A C83A,≤ 0.026
5,A9C G26A A31G A54G G88U A89G,≤ 0.026
6,A9C G26U C27U U76C C82U,≤ 0.026
7,A9C G32C G59U C68G,≤ 0.026
8,A9C G32U G61U,≤ 0.026
9,A9C G61A C81A,≤ 0.026
10,A9C G61C G73C,≤ 0.026
11,A9C G66A C79U,≤ 0.026
12,A9C G66A G88C,≤ 0.026
13,A9C G66U,≤ 0.026
14,A9C G73U,≤ 0.026
15,A9C G84A,≤ 0.026
16,A9C G86U,≤ 0.026
17,A9C U16C G88C,≤ 0.026
18,A9C U17G C34U C77U C83G,≤ 0.026
19,A9C U20C C75A,0.566
20,A9C U20G G65U C82A,≤ 0.026
21,A9C U20G U21G G86A,≤ 0.026
